# According to PubChem BioAssay AID1508642 (National Center for Advancing Translational Sciences (NCATS), 2021):
# The campaign covered roughly 43,000 compounds. About 200 (0.47%) were called active. About 12% were inconclusive and are not listed. Calls come from the whole dose curve; as a rule, active = well fitted cell-killing curve with a large enough effect; inconclusive = small, poorly fitted or top-dose-only effect, or effect the other way; inactive = flat fitted curve, though single readings scatter. Some of the results follow.
# Experiment: Cell viability qHTS assay in S16 Pmp22-F2sN cells; note: nearly all actives have a fitted effect of over 65% in size
# Settings: S16 Pmp22-F2sN Schwann cells (luciferase reporters placed in the Pmp22 gene) viability, CellTiter-Glo, 24 h; series mostly up to 57.5 µM; activity change, negative = cytotoxicity: at the top concentration
# How it was run: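 Luminescence from CellTiter-Glo, read by CCD camera after a 15 min room-temperature incubation, served as the viability signal. Reporter Schwann cells (S16 Pmp22-F2sN) had been treated with pin-transferred compounds for 24 h at 37C.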
# % is set by controls: 0 for no effect and ±100 for the full control effect; potency is the fitted concentration of half-maximal effect.
Structure (SMILES),"activity change, negative = cytotoxicity",Potency
CCN1CCN(c2ncnc3c2cnn3-c2ccc(C)c(Cl)c2)CC1,inactive: 1.23%,–
COc1ccc(-c2noc(-c3ccc(N4CCCC4)c([N+](=O)[O-])c3)n2)cc1,inactive: -6.39%,–
O=C(NCc1ccc2c(c1)CCN2C(=O)c1ccccc1)Nc1cc(F)ccc1F,inactive: -25.6%,–
CCOC(=O)Cc1ccc(NC(=O)Nc2ccccc2OCc2cc(=O)n3ccccc3n2)cc1,inactive: -5.09%,–
COc1ccccc1-n1c(=O)c2c3c(sc2n(C)c1=O)CN(C(C)=O)CC3,inactive: 11.5%,–
CCn1nnc2cc(C(=O)Nc3cccc(Cl)c3C)ccc21,inactive: -10.3%,–
COc1ccc(Cn2c(CNS(=O)(=O)c3ccc(C)c(C)c3)nc3cccnc32)cc1,inactive: -4.34%,–
CCOc1ccc(N(CC(=O)Nc2cc(C)ccc2C)S(=O)(=O)c2c(C)[nH]c(=O)[nH]c2=O)cc1,inactive: 4.98%,–
Cc1ccc(NC(=O)CCn2nc(C)c(S(=O)(=O)N3CCCCC3)c2C)cc1Cl,inactive: 1.88%,–
CCOC(=O)c1c(C)sc(-c2c(-c3cc(C)ccc3C)[nH]c3c2c(=O)n(C)c(=O)n3C)c1O,inactive: 1.01%,–
COc1ccc(NC(=O)N2CCc3c(sc4c3CCCC4)C2c2ccccc2OC)cc1 (stereo unspecified),inactive: -20.2%,–
CC(C)CC(=O)Nc1ccc2nc(SCC(=O)N3CCCC3)sc2c1,inactive: 26.3%,–
Cc1ccc(C)c(CN2C(=O)c3ccccc3S(=O)(=O)c3ccc(C(=O)N4CCc5ccccc54)cc32)c1,inactive: -0.511%,–
Cc1ccc(OCC(=O)NCC(c2ccc(Cl)cc2)N2CCCCC2)cc1 (stereo unspecified),inactive: 4.75%,–
CCCNC(=O)CSc1nc2ccccc2nc1Cc1ccc(Cl)cc1,inactive: -6.54%,–
CCN(c1ccc(C)cc1)S(=O)(=O)c1nnc(NC(=O)C2CCCCC2)s1,inactive: -5.59%,–
CSc1ccc(CCNC(=O)CCc2c(C)nc3c(c(C)nn3-c3ccc(C)c(C)c3)c2C)cc1,inactive: 15%,–
CCOC(=O)c1cccc(NC(=O)c2ccc3nc(C(C)C)oc3c2)c1,inactive: 3.51%,–
CSc1cccc(NC(=O)CC(c2cccs2)N2Cc3ccccc3C2=O)c1 (stereo unspecified),inactive: -1.07%,–
COc1cc(-c2noc(CN3CCN(c4cccc(Cl)c4)CC3)n2)cc(OC)c1OC,inactive: 7.51%,–
CCOc1ccccc1NC(=O)N1CCN(C)c2ncccc21,inactive: 1.94%,–
Cc1ccc(NC(=O)CSc2n[nH]c(-c3ccc(F)cc3)n2)cc1F,inactive: -0.217%,–
COc1ccc(Cn2c(=O)n(-c3ccccc3C)c(=O)c3c4c(sc32)CN(C(C)=O)CC4)cc1,inactive: 3.37%,–
O=C(Nc1cccc(Cl)c1Cl)c1cc2nc(-c3ccc(Cl)cc3)cc(C(F)(F)F)n2n1,inactive: 3.25%,–

Structure (SMILES),"activity change, negative = cytotoxicity",Potency
CCC(C(=O)Nc1nnc2n1CCS2)c1ccccc1 (stereo unspecified),inactive: 1.05%,–
O=C(NCCc1nc2ccccc2n1Cc1ccccc1)c1ccco1,inactive: 14.1%,–
CCN(CC)CCNC(=O)C1CCN(c2cc(C)nc3c(-c4ccc(Cl)cc4)c(C)nn23)CC1,inactive: -5.26%,–
Cc1ccc(NS(=O)(=O)c2cnc(N)nc2)c(C)c1,inactive: 1.1%,–
CCN(CC)CCNC(=O)c1cc(-c2ccc(Br)s2)nc2ccccc12,–,active: 31.6 µM
Cc1nc(-n2nc(C)c(Cc3ccc4c(c3)OCO4)c2C)sc1C(=O)Nc1cccc(Cl)c1,inactive: 3.08%,–
CCCCC(=O)OC1=C(C(C)=O)N(Cc2ccccc2)S(=O)(=O)c2ccccc21,inactive: -0.444%,–
O=C(Cn1nc(-c2ccccc2)nc(Cc2ccccc2)c1=O)Nc1ccccc1,inactive: 1.29%,–
Cc1cccc(C(=O)Nc2ccc(C(=O)OCc3cc(=O)n4nc(C5CC5)sc4n3)cc2)c1,inactive: 1.32%,–
COc1ccccc1N1CCN(C(=O)CCc2nnc3n(C)c(=O)c4sccc4n23)CC1,inactive: 5.09%,–
COc1ccc(S(=O)(=O)NCC(c2ccc(N(C)C)cc2)N2CCc3ccccc32)cc1 (stereo unspecified),inactive: -0.231%,–
CCC(Sc1ncnc2sc3c(c12)CCCC3)C(=O)OC(C)C (stereo unspecified),inactive: 6.46%,–
CCCC(=O)N1CC(=O)Nc2ccc(Cl)cc2C1c1ccccc1 (stereo unspecified),inactive: 3.36%,–
Cc1ccc(N2C(=O)NC(NS(=O)(=O)c3ccc(Cl)cc3)(C(F)(F)F)C2=O)cc1C (stereo unspecified),inactive: 0.953%,–
COc1ccc(S(=O)(=O)N2CCC(c3ccncc3)CC2)cc1OC,inactive: -0.381%,–
CCc1ccc(NC(=O)Cn2c(=O)n(Cc3nc(-c4ccccc4)no3)c(=O)c3cc4c(cc32)OCO4)cc1,inactive: -4.37%,–
CSc1ccc(CCNC(=O)Cn2ncc3c(=O)oc4ccccc4c32)cc1,inactive: 14.4%,–
CCOc1ccc(OCC)c(NC(=O)C2CCN(S(=O)(=O)c3cn(C)cn3)CC2)c1,inactive: 14.8%,–
COCCNC(=O)CSc1cn(CC(=O)N2CCCCCC2)c2ccccc12,inactive: 1.66%,–
CCc1ccc(NC(=O)CSC2=Nc3ccccc3C3=NC(CC(=O)NC4CCCCC4)C(=O)N23)cc1 (stereo unspecified),inactive: -16.9%,–
Cc1ccc2c(=O)cc(C(=O)Nc3ccc(S(=O)(=O)Nc4nc(C)cc(C)n4)cc3)oc2c1,inactive: -18.7%,–
COc1ccc(NC(=O)C2CCCN(S(=O)(=O)c3ccc4c(c3)CCCC(=O)N4)C2)cc1OC (stereo unspecified),inactive: -0.553%,–
CCCCN(CCCC)CCNC(=O)c1cn(CC)c2ccc(S(=O)(=O)N3CCc4ccccc4C3)cc2c1=O,inactive: -9.18%,–
CCCN(CCC)CCNC(=O)CN1C(=O)COc2ccc(S(=O)(=O)N3CCC(C)CC3)cc21,inactive: 11%,–

Structure (SMILES),"activity change, negative = cytotoxicity",Potency
Cc1ccc(-c2nc3ccccc3s2)cc1NC(=O)COc1ccccc1,inactive: 15.6%,–
CCOc1ccc(/C=C/c2nc(C#N)c(N3CCCCC3)o2)cc1,inactive: -1.63%,–
Cc1ccc(OCC(=O)NCC2(N3CCOCC3)CCCCC2)cc1C,inactive: -24.1%,–
O=C(CN(CCc1ccccc1)S(=O)(=O)c1ccc(Br)cc1)NCc1ccc(Cl)cc1,inactive: -14.1%,–
COc1ccc(N(Cc2cccs2)C(=O)c2ccc(Br)o2)cc1,inactive: -5.7%,–
CCC1CN(C(=O)C2CCN(S(=O)(=O)c3c(C)noc3/C=C/c3ccccc3F)CC2)c2cc(Cl)ccc2O1 (stereo unspecified),inactive: 3.37%,–
CCOC(=O)Cn1nc(-c2ccccc2)c2cnc3ccc(OCC)cc3c21,inactive: 19.7%,–
CCOC(=O)CSc1nc2c([nH]c3ccccc32)c(=O)n1-c1ccc(OC)cc1,inactive: 0.268%,–
COc1ccc(CN(C(=O)Nc2cccc(OC)c2)C2CCN(C(C)=O)CC2)cc1,inactive: 1.54%,–
COc1ccc(C2c3c(oc4ccc(Cl)cc4c3=O)C(=O)N2CCCN(C)C)cc1OC (stereo unspecified),inactive: 14.8%,–
COc1cccc(CNC(=O)CN2C(=O)N(c3c(C)cccc3C)S(=O)(=O)c3ccccc32)c1OC,inactive: 11.6%,–
O=c1[nH]c2ccc(NCc3ccc(-c4ccc(Cl)cc4)o3)cc2[nH]1,inactive: 4.48%,–
CCOc1ccccc1Nc1nc(-c2ccc(C)cc2)c(CC(=O)O)s1,inactive: -3.85%,–
CCOc1ccc(NC(=O)Cn2nnc(C(=O)NCc3cccs3)c2N)cc1,inactive: 2.02%,–
COc1ccc2c(c1)CCc1c(C(=O)Nc3c(C)nn(Cc4ccc(Cl)cc4)c3C)noc1-2,inactive: -27.6%,–
CC(=O)c1ccc(Nc2nc3ccccc3nc2-n2nc(C)cc2C)cc1,inactive: -3.91%,–
CC(=O)c1cccc(NC(=O)Cn2c(=O)oc3cc(S(=O)(=O)NC4CCCC4)ccc32)c1,inactive: -2.59%,–
CC(=O)N1CCN(c2nc3c(C)ccc(Cl)c3s2)CC1,inactive: -15%,–
COc1cccc(NC(=O)CSc2nccn2Cc2ccc3c(c2)OCO3)c1,inactive: 12.5%,–
Cc1ccc(C)c(Cn2c3ccccc3c3cnn(CC(=O)NCC(C)c4ccccc4)c(=O)c32)c1 (stereo unspecified),inactive: 17.3%,–
CCCCOC(=O)c1ccc(NC(=O)Cc2coc3c(C)c(C)ccc23)cc1,inactive: -17.2%,–
COC(=O)c1ccccc1NC(=O)C1(c2cccs2)CCOCC1,inactive: -9.36%,–
CCOC(=O)c1c(C)[nH]c(C)c1S(=O)(=O)N1CCCC(C(=O)Nc2ccc(C)c(N(C)C)c2)C1 (stereo unspecified),inactive: 9.58%,–
CCOC(=O)c1[nH]c(C)c(CCC(=O)NCc2cccc(C)c2)c1C,inactive: -12.9%,–

Structure (SMILES),"activity change, negative = cytotoxicity",Potency
Cc1ccc(OCC(=O)N(Cc2ccco2)c2ccccn2)cc1,inactive: 6.11%,–
Cc1cc(C)cc(NC(=O)c2ccc3c(O)c(S(=O)(=O)c4ccccc4)c(=O)[nH]c3c2)c1,inactive: -6.14%,–
COc1cc(Cl)c(C)cc1NC(=O)c1ccc(CN2C(=O)CCn3nc(C)cc32)cc1,inactive: -27.4%,–
Cc1c(Cl)cccc1NC(=O)CSc1ncc(S(=O)(=O)c2ccc(C(C)C)cc2)c(=O)[nH]1,inactive: 9.69%,–
Cc1ccc(-c2nnc(Nc3ccc(Cl)c(Cl)c3)c3ccccc23)cc1S(=O)(=O)N(C)C,inactive: 13.1%,–
COc1ccc(CCNS(=O)(=O)c2ccc(F)c(C(=O)Nc3ccc(Cl)cc3)c2)cc1OC,inactive: -28.6%,–
Cc1ccc(C(=O)N2CCN(c3ccc(F)cc3)CC2)cc1NC(=O)c1nsc2ccccc12,inactive: 3.87%,–
Oc1c(C(c2ccccc2Cl)N2CCOCC2)sc2nc(-c3ccco3)nn12 (stereo unspecified),inactive: 9.95%,–
CCC(=O)N1CCc2cc(CNC(=O)Nc3cc(C)ccc3C)ccc21,inactive: 1.68%,–
CCNC(=O)c1c(NC(=O)Cc2coc3cc(C)ccc23)sc2c1CCCC2,inactive: 5.34%,–
CCn1c(C(=O)NCc2ccc(OC)cc2)cc2sc(Cl)cc21,inactive: 18.7%,–
CCn1cc(C(=O)N2CCN(c3ccccc3)CC2)c(=O)c2cc(S(=O)(=O)N3CCCC3)ccc21,inactive: -4.02%,–
COc1cccc(C(=O)Nc2nc3nc(C)c(C)c(=O)n3[nH]2)c1,inactive: 5.89%,–
CCOc1ccc(S(=O)(=O)Nc2cccc(C)c2)c2cccnc12,inactive: 3.61%,–
CCc1ccccc1NC(=O)Cc1cn(C)c2ccccc12,inactive: -4.08%,–
Cc1ccc(Nc2ncnc3onc(C)c23)cc1Cl,inactive: -9.29%,–
COc1ccc(-c2nn(CC(=O)NCc3ccccc3)c3c2cnc2ccc(F)cc23)cc1,inactive: 28.6%,–
CCOc1ccccc1NC(=O)CN1C(=O)COc2ccc(S(=O)(=O)Nc3ccccc3)cc21,inactive: 18.7%,–
Cc1ccc(NC(=O)C2CCCN(S(=O)(=O)c3ccc4[nH]c(=O)ccc4c3)C2)cc1C (stereo unspecified),inactive: 0.303%,–
CCCCN(C)CCCNC(=O)CN1C(=O)CSc2ccc(S(=O)(=O)N3CCOCC3)cc21,inactive: 3.43%,–
O=C(NCc1cccs1)c1nn(-c2ccccc2F)nc1CO,inactive: 3.1%,–
CCCCNC(=O)Cn1ncc2c(C)n(Cc3cccc(Cl)c3)c(C)c2c1=O,inactive: 2.19%,–
O=C(Cn1c(=O)nc(-c2ccccc2F)c2cc(Cl)ccc21)Nc1ccccc1C(F)(F)F,inactive: 0.383%,–
CCCC(CCC)C(=O)Nc1nnc2n1CCS2,inactive: -0.06%,–
